# The list shows a part of the results.
# B1: Blon2468mut (Bifidobacterium longum) (protein)
# chain: MTFIKQMMPRYVASMTAGIVAAAMAATCAFAPVANADAVSPTQETIQSTGRHFMVYYRAWRDVTMKGVNTDLPDDNWISMYDIPYGVDVVNIFSYVPSGQEEQAQPFYDKLKSDYAPYLHSRGIKLVRGIDYTGVAVNGFRTFMKEQNKTESEATEADYDAYAKQVIDKYMISVGLDGLDIDMQAHPNDADVKISDNVIRALSKHIGPKSAKPDTTMFLYDTNGSYLNPFKNVAECFDYVAYQQYGSSSDRTARAAADYQPYIGNEFVPGLTFPEEGDMNNRWYDATEPYEESHFYQVASYVREHNLGGMFVYALDRDGRNYDEDLRRIVPSNLLWTKTAIAESEGMALDTAKTAANHYLDRMSLRQVIDDNAASADKARDMVGKAANLYETNKAVLGGDYGEGFSNTYDPTLEAGLLGIDISVLQQQIDKSSEIIGADTAESDAKTALRMARDAAIDGLTGKIYTADQVSAWSQALKAALDATVPVPTPDSTDQNGNRDKVTNHKVQGQPKQLSATGISTDIIVAVGVTLAIAGVALSLSRKLS
# Tests used:
# Test in all cases: glycan array binding signal (z-score within array); higher = stronger binding
# Conditions in all cases: glycan notation: IUPAC condensed, linker removed
# [1] = molecular target: Neu5Ac(a2-3)Gal(b1-3)[Fuc(a1-4)]GlcNAc(b1-3)Gal(b1-3)[Fuc(a1-4)]GlcNAc
# Summary of the method: (§1)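 Negative Z-scores can be read as non-binding. The Z-score is calculated within each array and then averaged across arrays of one protein sequence at different concentrations or buffers and across linkers. Arrays, 3228 in all, were curated from the Consortium for Functional Glycomics database and kept only where the protein sequence was available.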
# [2] = molecular target: Neu5Ac(a2-3)Gal(b1-3)[Fuc(a1-4)]GlcNAc(b1-3)Gal(b1-4)[Fuc(a1-3)]GlcNAc
# Summary of the method: as §1
# [3] = molecular target: Neu5Ac(a2-3)Gal(b1-3)[GlcNAc(b1-6)]GalNAc
# Summary of the method: as §1
# [4] = molecular target: Neu5Ac(a2-3)Gal(b1-3)[Neu5Ac(a2-6)]GalNAc
# Summary of the method: as §1
# [5] = molecular target: Neu5Ac(a2-3)Gal(b1-3)[Neu5Ac(a2-6)]GlcNAc(b1-3)[Fuc(a1-3)[Gal(b1-4)]GlcNAc(b1-6)]Gal(b1-4)Glc
# Summary of the method: as §1
# [6] = molecular target: Neu5Ac(a2-3)Gal(b1-3)]Neu5Ac(a2-3)Gal(b1-4)]GlcNAc
# Summary of the method: as §1
# [7] = molecular target: Neu5Ac(a2-3)Gal(b1-4)Glc
# Summary of the method: as §1
# [8] = molecular target: Neu5Ac(a2-3)Gal(b1-4)GlcNAc
# Summary of the method: as §1
# [9] = molecular target: Neu5Ac(a2-3)Gal(b1-4)GlcNAc(b1-2)Man
# Summary of the method: as §1
# [10] = molecular target: Neu5Ac(a2-3)Gal(b1-4)GlcNAc(b1-2)Man(a1-3)[GlcNAc(b1-4)][Neu5Ac(a2-3)Gal(b1-4)GlcNAc(b1-2)Man(a1-6)]Man(b1-4)GlcNAc(b1-4)GlcNAc
# Summary of the method: as §1
# [11] = molecular target: Neu5Ac(a2-3)Gal(b1-4)GlcNAc(b1-2)Man(a1-3)[Neu5Ac(a2-3)Gal(b1-4)GlcNAc(b1-2)Man(a1-6)]Man(b1-4)GlcNAc(b1-4)GlcNAc
# Summary of the method: as §1
# [12] = molecular target: Neu5Ac(a2-3)Gal(b1-4)GlcNAc(b1-2)Man(a1-3)[Neu5Ac(a2-3)Gal(b1-4)GlcNAc(b1-2)Man(a1-6)]Man(b1-4)GlcNAc(b1-4)[Fuc(a1-6)]GlcNAc
# Summary of the method: as §1
# [13] = molecular target: Neu5Ac(a2-3)Gal(b1-4)GlcNAc(b1-2)Man(a1-3)[Neu5Ac(a2-6)Gal(b1-4)GlcNAc(b1-2)Man(a1-6)]Man(b1-4)GlcNAc(b1-4)GlcNAc
# Summary of the method: as §1
# [14] = molecular target: Neu5Ac(a2-3)Gal(b1-4)GlcNAc(b1-2)[Neu5Ac(a2-3)Gal(b1-4)GlcNAc(b1-2)]Man(a1-6)[Neu5Ac(a2-3)Gal(b1-4)GlcNAc(b1-2)Man(a1-3)][GlcNAc(b1-4)]Man(b1-4)GlcNAc(b1-4)GlcNAc
# Summary of the method: as §1
# [15] = molecular target: Neu5Ac(a2-3)Gal(b1-4)GlcNAc(b1-2)[Neu5Ac(a2-3)Gal(b1-4)GlcNAc(b1-4)]Man(a1-3)[GlcNAc(b1-4)][Neu5Ac(a2-3)Gal(b1-4)GlcNAc(b1-2)[Neu5Ac(a2-3)Gal(b1-4)GlcNAc(b1-6)]Man(a1-6)]Man(b1-4)GlcNAc(b1-4)GlcNAc
# Summary of the method: as §1
# [16] = molecular target: Neu5Ac(a2-3)Gal(b1-4)GlcNAc(b1-2)[Neu5Ac(a2-3)Gal(b1-4)GlcNAc(b1-4)]Man(a1-3)[GlcNAc(b1-4)][Neu5Ac(a2-3)Gal(b1-4)GlcNAc(b1-4)Man(a1-6)]Man(b1-4)GlcNAc(b1-4)GlcNAc
# Summary of the method: as §1
# [17] = molecular target: Neu5Ac(a2-3)Gal(b1-4)GlcNAc(b1-2)[Neu5Ac(a2-3)Gal(b1-4)GlcNAc(b1-6)]Man(a1-6)[Neu5Ac(a2-3)Gal(b1-4)GlcNAc(b1-2)Man(a1-3)]Man(b1-4)GlcNAc(b1-4)GlcNAc
# Summary of the method: as §1
# [18] = molecular target: Neu5Ac(a2-3)Gal(b1-4)GlcNAc(b1-3)Gal
# Summary of the method: as §1
# [19] = molecular target: Neu5Ac(a2-3)Gal(b1-4)GlcNAc(b1-3)Gal(b1-3)GlcNAc
# Summary of the method: as §1
# [20] = molecular target: Neu5Ac(a2-3)Gal(b1-4)GlcNAc(b1-3)Gal(b1-4)GlcNAc
# Summary of the method: as §1
# [21] = molecular target: Neu5Ac(a2-3)Gal(b1-4)GlcNAc(b1-3)Gal(b1-4)GlcNAc(b1-2)Man(a1-3)[Neu5Ac(a2-3)Gal(b1-4)GlcNAc(b1-3)Gal(b1-4)GlcNAc(b1-2)Man(a1-6)]Man(b1-4)GlcNAc(b1-4)GlcNAc
# Summary of the method: as §1
# [22] = molecular target: Neu5Ac(a2-3)Gal(b1-4)GlcNAc(b1-3)Gal(b1-4)GlcNAc(b1-3)Gal(b1-4)GlcNAc
# Summary of the method: as §1
# [23] = molecular target: Neu5Ac(a2-3)Gal(b1-4)GlcNAc(b1-3)Gal(b1-4)GlcNAc(b1-3)Gal(b1-4)GlcNAc(b1-2)Man(a1-3)[Neu5Ac(a2-3)Gal(b1-4)GlcNAc(b1-3)Gal(b1-4)GlcNAc(b1-3)Gal(b1-4)GlcNAc(b1-2)Man(a1-6)]GalNAc
# Summary of the method: as §1
# [24] = molecular target: Neu5Ac(a2-3)Gal(b1-4)GlcNAc(b1-3)Gal(b1-4)GlcNAc(b1-3)GalNAc
# Summary of the method: as §1
# [25] = molecular target: Neu5Ac(a2-3)Gal(b1-4)GlcNAc(b1-3)Gal(b1-4)GlcNAc(b1-3)[Neu5Ac(a2-3)Gal(b1-4)GlcNAc(b1-3)Gal(b1-4)GlcNAc(b1-6)]GalNAc
# Summary of the method: as §1
# [26] = molecular target: Neu5Ac(a2-3)Gal(b1-4)GlcNAc(b1-3)Gal(b1-4)GlcNAc(b1-6)[Gal(b1-3)]GalNAc
# Summary of the method: as §1
# [27] = molecular target: Neu5Ac(a2-3)Gal(b1-4)GlcNAc(b1-3)Gal(b1-4)[Fuc(a1-3)]GlcNAc
# Summary of the method: as §1
# [28] = molecular target: Neu5Ac(a2-3)Gal(b1-4)GlcNAc(b1-3)GalNAc
# Summary of the method: as §1
# [29] = molecular target: Neu5Ac(a2-3)Gal(b1-4)GlcNAc(b1-3)[Neu5Ac(a2-3)Gal(b1-4)GlcNAc(b1-6)]GalNAc
# Summary of the method: as §1
# [30] = molecular target: Neu5Ac(a2-3)Gal(b1-4)GlcNAc(b1-6)GalNAc
# Summary of the method: as §1
binder,measurement,setting,value
B1,glycan array binding signal (z-score),[1],-0.04
same,glycan array binding signal (z-score),[2],0.065
same,glycan array binding signal (z-score),[3],-0.069
same,glycan array binding signal (z-score),[4],-0.016
same,glycan array binding signal (z-score),[5],-0.071
same,glycan array binding signal (z-score),[6],-0.06
same,glycan array binding signal (z-score),[7],-0.056
same,glycan array binding signal (z-score),[8],-0.062
same,glycan array binding signal (z-score),[9],-0.056
same,glycan array binding signal (z-score),[10],-0.063
same,glycan array binding signal (z-score),[11],-0.062
same,glycan array binding signal (z-score),[12],-0.086
same,glycan array binding signal (z-score),[13],-0.083
same,glycan array binding signal (z-score),[14],-0.033
same,glycan array binding signal (z-score),[15],-0.084
same,glycan array binding signal (z-score),[16],-0.047
same,glycan array binding signal (z-score),[17],-0.048
same,glycan array binding signal (z-score),[18],-0.065
same,glycan array binding signal (z-score),[19],-0.073
same,glycan array binding signal (z-score),[20],-0.072
same,glycan array binding signal (z-score),[21],-0.079
same,glycan array binding signal (z-score),[22],-0.05
same,glycan array binding signal (z-score),[23],-0.005
same,glycan array binding signal (z-score),[24],-0.088
same,glycan array binding signal (z-score),[25],-0.083
same,glycan array binding signal (z-score),[26],-0.044
same,glycan array binding signal (z-score),[27],-0.04
same,glycan array binding signal (z-score),[28],-0.065
same,glycan array binding signal (z-score),[29],-0.05
same,glycan array binding signal (z-score),[30],-0.066

# Source: the supplement of paper PMC8728848
